# In PubChem BioAssay AID1508642 (National Center for Advancing Translational Sciences (NCATS), 2021):
# The campaign covered roughly 43,000 compounds. About 200 (0.47%) were called active. Not shown: some 12% with an inconclusive outcome. Calls follow the shape of the dose curve; as a rule, active = well fitted cell-killing curve with a large enough effect; inconclusive = small, poorly fitted or top-dose-only effect, or effect the other way; inactive = flat fitted curve, though single readings scatter. Some of the results follow.
# Experiment: Cell viability qHTS assay in S16 Pmp22-F2sN cells; also: nearly all actives have a fitted effect of over 65% in size
# Details: S16 Pmp22-F2sN Schwann cells (luciferase reporters placed in the Pmp22 gene) viability, CellTiter-Glo, 24 h; series mostly up to 57.5 µM; activity change, negative = cytotoxicity: at the top concentration
# In short: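 Rat S16 Schwann reporter line, 24 h treatment with library compounds delivered at 23 nL per well. Cell viability by CellTiter-Glo luminescence.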
# % is scaled to controls: 0 for no effect and ±100 for the full control effect.
row,Structure (SMILES),"activity change, negative = cytotoxicity"
1,CCOC(=O)c1c(NC(=O)c2ccc(Br)cc2)sc2c1CCCC2,inactive: 6.94%
2,Cc1nn(C)c2c1c(C(F)(F)F)cc(=O)n2CC(=O)N1CCCCC1,inactive: 17.4%
3,O=C(O)c1cccc(Nc2ncnc3ccc(Br)cc23)c1,inactive: -2.48%
4,COc1ccc(C(=O)Nc2nnc(S(=O)(=O)N3CCCc4ccccc43)s2)cc1,inactive: 3.7%
5,Cc1ccc2nc(-c3cccc(NC(=O)c4ccc(Br)o4)c3)oc2c1,inactive: 20.2%
6,CCOc1ccccc1-n1nnc(-c2nc(-c3ccccc3C)no2)c1C,inactive: 2.5%
7,O=C(Nc1ccc(F)c(Cl)c1)C1CCN(S(=O)(=O)c2ccc3[nH]c(=O)ccc3c2)CC1,inactive: -2.86%
8,Cc1ccc2cc(CN(C)C(=O)c3cccc(Cl)c3)c(=O)[nH]c2c1,inactive: -8.41%
9,Cc1ccccc1NC(=O)c1cccc2c(=O)c3c([nH]c12)CCCC3,inactive: -1.54%
10,Cc1ccc(NC(=O)CSc2ccc3nnc(CCNS(=O)(=O)c4ccccc4)n3n2)cc1Cl,inactive: -3.93%
11,Cc1ccc(Cl)cc1NC(=O)N1CCC(CN2CCCCCC2)CC1,inactive: -24.9%
12,CN(C)CCNC(=O)c1ccc2c(c1)N(Cc1ccccc1)C(=O)c1ccccc1S2(=O)=O,inactive: 9.62%
13,Cc1ccc2c(c1)N(S(=O)(=O)c1cc(-c3onc(C)c3C)ccc1C)CCO2,inactive: -13.7%
14,O=C(CN1C(=O)COc2ccc(S(=O)(=O)N3CCCC3)cc21)N1CCN(c2ccc(Cl)cc2)CC1,inactive: -0.844%
15,COc1cccc(-n2cc(C(=O)OCc3ccc(F)c(F)c3)c3ccccc3c2=O)c1,inactive: 6.8%
16,COc1ccccc1CNC(=O)CCn1c(=O)c2ccccc2n(CC(=O)Nc2ccc(Br)cc2F)c1=O,inactive: 15.9%
17,O=C1c2[nH]nc(-c3ccccc3O)c2C(c2cccc(O)c2)N1Cc1ccncc1 (configuration not stated),inactive: -6.77%
18,O=C(Cn1cc(C(=O)c2ccncc2)c(=O)c2cc(F)ccc21)Nc1ccc(Cl)cc1,inactive: -0.428%
19,COCCCNC(=O)N1[C@H](c2cccs2)[C@@H](C)C(=O)[C@@H](C)[C@@H]1c1cccs1,inactive: -10.4%
20,CCOc1ccc(CCNC(=O)c2cc3c(=O)oc4ccc(C)cc4c3s2)cc1OCC,inactive: 2.02%
21,CCOC(=O)c1ccc2c(c1)N(CC(=O)N(C)c1ccccc1)C(=O)c1ccccc1S2,inactive: 9.45%
22,COc1ccccc1NC(=O)c1cc(=O)c2ccc(C)c(C)c2o1,inactive: 17.6%
23,COc1ccc(-c2cn(-c3ccc(C)cc3)c(S(=O)(=O)CC(=O)Nc3ccc(F)cc3)n2)cc1,inactive: -25.6%
24,Cc1ccc(Cc2c(C)nc3nc(SCC(=O)NC4CCC(C)CC4)nn3c2C)cc1 (configuration not stated),inactive: 9.49%
25,CC1CCCCN1C(=O)CSc1n[nH]c(-c2ccccc2Cl)n1 (configuration not stated),inactive: -3.37%

row,Structure (SMILES),"activity change, negative = cytotoxicity"
1,O=C(CC1N=C2c3ccccc3N=C(SCc3cccc(Cl)c3)N2C1=O)NCc1ccc2c(c1)OCO2 (configuration not stated),inactive: -15.5%
2,N#C/C(=C\c1ccc(-c2ccc(C(=O)O)cc2)o1)C(=O)Nc1ccccc1C(=O)O,inactive: 10%
3,Cc1nn(CCC(=O)Nc2cc(F)ccc2F)c(=O)c2nn(-c3ccccc3)c(C)c12,inactive: 0.689%
4,CCOc1ccccc1NC(=O)N1CC(CC)Oc2ccccc21 (configuration not stated),inactive: 10.8%
5,Cc1ccc(C(=O)CSc2nc(-c3ccccc3)nc3c2CCCC3)cc1,inactive: 16.9%
6,CCOC(=O)CSc1nc(-c2ccc(C)cc2C)cc(-c2ccccc2)c1C#N,inactive: 5.24%
7,COc1cccc(CNCCNC(=O)c2nonc2N)c1,inactive: -2.27%
8,Cc1cccc(NS(=O)(=O)c2c(C)nc3sccn3c2=O)c1C,inactive: -0.216%
9,O=C(NCc1ccccc1Cl)c1cc2c(s1)-c1ccc(Cl)cc1SC2,inactive: 15.8%
10,CCSc1nc2c([nH]c3ccccc32)c(=O)n1CC,inactive: -4.95%
11,O=C(Cn1c(=O)nc(-c2ccccc2)c2ccccc21)Nc1cccc(C(F)(F)F)c1,inactive: 16.3%
12,Cc1c(C(=O)NCc2cccc(Cl)c2)sc2ncnc(N(C)C3CCCCC3)c12,inactive: -5.47%
13,CC(C)(C)C(=O)Nc1cccc(-c2cn3cccnc3n2)c1,inactive: 13.7%
14,COc1cccc(-n2c(=O)c3c(C)c(C)sc3n(CC(=O)NCc3ccc(C)cc3)c2=O)c1,inactive: 14.7%
15,Cc1cccc(CSc2ncc(Cl)c(C(=O)Nc3sc4c(c3C(N)=O)CCCC4)n2)c1,inactive: -5.17%
16,COc1ccccc1NC(=O)CSC1=Nc2ccccc2C2=NC(CC(=O)NCc3ccco3)C(=O)N12 (configuration not stated),inactive: 3.09%
17,Cc1ccc(C(=O)Nc2cc3c(cc2C)n(C)c(=O)c(=O)n3C)cc1,inactive: 4.34%
18,CCOc1ccccc1CN1CCN(S(=O)(=O)c2ccccc2)CC1,inactive: -12.8%
19,Cc1ccccc1NC(=O)c1ccc2c(c1)c(C)c(C)n2Cc1ccccc1,inactive: -3.37%
20,CC(=O)c1cccc(NC(=O)c2oc3c(c2C)-c2nn(Cc4ccc(Cl)cc4)cc2CC3)c1,inactive: -3.71%
21,O=C(CN1N=C(c2ccc(Cl)cc2)CCC1=O)NCCc1ccc(Cl)cc1,inactive: -13.7%
22,COCc1nc2ccccc2n1CCOc1cccc(C)c1,inactive: 0.952%
23,COc1ccc(S(=O)(=O)N2CCCN(CC(=O)Nc3ccc(NC(C)=O)cc3)CC2)cc1,inactive: 4.63%
24,Cc1nc2c(C(=O)NCCCN(CC(C)C)CC(C)C)cnn2c(C)c1Cc1c(F)cccc1Cl,inactive: 0.415%
25,CCCOC(=O)c1c(NC(=O)c2nc3ncccn3n2)sc(C(N)=O)c1C,inactive: 23%

row,Structure (SMILES),"activity change, negative = cytotoxicity"
1,COc1ccc(OC)c(CNC(=O)c2ccc(Sc3ccc(C)cc3)c(N)c2)c1,inactive: -26.9%
2,CCc1ccc(-n2nc(C)c3c(C)cc(=O)n(Cc4nc(-c5ccccc5)oc4C)c32)cc1,inactive: 6.78%
3,COc1ccc(NC(=O)c2oc3ccc(S(=O)(=O)N4CCCCC4)cc3c2C)cc1,inactive: -16.1%
4,CCCc1nn2c(=O)cc(COC(=O)c3ccccc3NC(=O)COc3ccccc3F)nc2s1,inactive: 14.3%
5,Cc1ccccc1NC(=O)CSc1nc2nccnc2c(=O)n1CCc1c[nH]c2ccccc12,inactive: 5.88%
6,Cc1cc(C)cc(OCC(=O)Nc2c(C)ccc3nsnc23)c1,inactive: 15.1%
7,COc1ccc(S(=O)(=O)c2cnc3ccc(Cl)cc3c2N2CCCCC2C)cc1 (configuration not stated),inactive: -12.7%
8,CCCCN(C)CCCNC(=O)Cn1ncc2c3ccccc3n(Cc3ccccc3)c2c1=O,inactive: 7.91%
9,Cc1cccc(NC(=O)CSc2nccn2Cc2ccc(F)cc2)c1C,inactive: 3.67%
10,CCOc1ccc(N(CC)S(=O)(=O)c2cc(Br)cc3c2N(C(C)=O)C(C)C3)cc1 (configuration not stated),inactive: -7.47%
11,Cc1cccc(N2CCN(C(=O)Cn3nc(C)n4cccc4c3=O)CC2C)c1 (configuration not stated),inactive: 4.61%
12,O=C(Cc1ccccc1)Nc1sc2c(c1C(=O)Nc1ccc(Br)cc1)CCC2,inactive: 9.23%
13,Cc1ccc2oc(C(=O)Nc3cccc(Cl)c3)cc(=O)c2c1,inactive: -2.43%
14,COc1ccccc1C(=O)Nc1ccccc1OCc1cc(=O)n2ccccc2n1,inactive: 12.5%
15,Cc1c(C(=O)Nc2nc(-c3ccc(F)cc3)ns2)oc2ccc(Cl)cc12,inactive: 0.0502%
16,Cc1ccc(CCNC(=O)CS(=O)Cc2nc(-c3ccccc3Cl)oc2C)cc1 (configuration not stated),inactive: 2.52%
17,COc1cccc(N2CC(NC(=O)c3ccc(S(=O)(=O)N4CCOCC4)cc3)CC2=O)c1 (configuration not stated),inactive: 4.93%
18,O=C(c1cnn(-c2ccc(F)cc2)c1-n1cccc1)N1CCN(c2ccc(F)cc2)CC1,inactive: -1.47%
19,CCNc1nc(NCc2ccc(F)cc2)c2cnn(C)c2n1,inactive: -28.8%
20,CC1=C(C(=O)Nc2cccc(Cl)c2C)C2(CCCCCC2)OC1=O,inactive: -11.4%
21,CC1CCN(S(=O)(=O)c2ccc3c(c2)CCN3)CC1,inactive: -1.34%
22,COc1ccccc1Nc1sc(C(=O)c2ccc(C)cc2C)c(N)c1S(=O)(=O)c1ccccc1,inactive: -0.378%
23,CCc1ccc(S(=O)(=O)c2nnn3c2nc(Nc2cc(OC)ccc2OC)c2sccc23)cc1,inactive: 1.89%
24,CCOc1ccc(NC(=O)c2ccc3[nH]c(C)c(C)c3c2)cc1,inactive: -0.0521%
25,O=C(Cn1c(SCc2ccccc2F)nc2ccncc21)Nc1ccccc1C(F)(F)F,inactive: 0.664%

row,Structure (SMILES),"activity change, negative = cytotoxicity"
1,O=C(Cn1c(=O)c2cccn2c2cccnc21)NCc1cccc(F)c1,inactive: -1.29%
2,Cc1ccc(S(=O)(=O)Nc2cccc(-c3cn4cccc(C)c4n3)c2)c(C)c1,inactive: 1.59%
3,CCOc1cc(C(=O)NCCc2sc(-c3ccc(F)cc3)nc2C)cc(OCC)c1OCC,inactive: 7.58%
4,CNC(=O)CCCN1C(=O)c2cccnc2Sc2ccccc21,inactive: 11.7%
5,Cc1nc2ccc(S(=O)(=O)N(CC(=O)Nc3ccc(F)cc3F)Cc3ccccc3)cc2s1,inactive: -1.12%
6,CCCCC(=O)OC1=C(C(=O)c2ccccc2)N(CCC)S(=O)(=O)c2ccccc21,inactive: -22.2%
7,CC(NC(=O)CSc1n[nH]c(-c2ccccc2Cl)n1)c1nc2ccccc2[nH]1 (configuration not stated),inactive: 25%
8,Cc1ccsc1CN1CCc2nc(Nc3ccccc3)ncc2C1,inactive: 0.375%
9,CCc1ccc(NC(=O)CSC2=Nc3ccccc3C3=NC(CCC(=O)NCc4ccccc4)C(=O)N23)cc1 (configuration not stated),inactive: 6.83%
10,CCCCN(C)C(=O)c1cn(C)c2ccc(S(=O)(=O)N3CCC(C)CC3)cc2c1=O,inactive: 6.16%
11,O=C(Cn1ccc2cc(S(=O)(=O)N3CCCCC3)ccc21)NCCc1ccccc1Cl,inactive: -25.8%
12,COc1ccccc1NC(=O)Cn1c(=O)n(Cc2ccccc2)c(=O)c2c1c1cc(C)ccc1n2C,inactive: 3.05%
13,COc1cccc(NC(=O)CCNS(=O)(=O)c2ccc3c(c2)oc(=O)n3C)c1,inactive: 6.59%
14,CC(=O)c1cccc(NC(=O)c2nc(-c3ccccc3)n(-c3ccccc3)n2)c1,inactive: 4.49%
15,O=C1CCCc2cc(S(=O)(=O)N3CCCC(C(=O)NCc4ccccc4)C3)ccc2N1 (configuration not stated),inactive: 8.22%
16,COc1cc2c(cc1OC)n(Cc1cccc(C(F)(F)F)c1)c(=O)n1nc(-c3ccccc3)nc21,inactive: 18.2%
17,Cc1cc(C)c(NC(=O)CN(C)S(=O)(=O)c2ccc3c(c2)CCC(=O)N3)c(C)c1,inactive: 1.81%
18,COc1cc2c(cc1OC)C(COc1cccc(C(F)(F)F)c1)N(C(=O)c1ccc(S(=O)(=O)N3CCCC3)cc1)CC2 (configuration not stated),inactive: 3.33%
19,CCC(C)NC(=O)C1CCN(S(=O)(=O)c2ccc3c(c2)CCCN3C(C)=O)CC1 (configuration not stated),inactive: 1.8%
20,CCn1cc(C(=O)N2CCN(c3ccc(C)cc3)C(C)C2)c(=O)c2cc(S(=O)(=O)N3CCCC3)ccc21 (configuration not stated),inactive: 4.17%
21,CCc1ccccc1NC(=O)C(=O)NCCCN1CCOCC1,inactive: 12.3%
22,Cc1cc(C)c(NC(=O)CCS(=O)(=O)c2cc3c(cc2Cl)NC(=O)CO3)c(C)c1,inactive: 7.73%
